Data taken from the supplement of paper PMC4723716.
± gives the uncertainty stated by the source. The full ranking holds about 9,900 compounds; the median of “viability index relative to DMSO control” is about 1, and the lowest 2% start at about 0.85. Some of the results follow.

System: Plasmodium falciparum NF54 stage V gametocytes
Experiment: viability index relative to DMSO control (fraction); higher = less gametocyte killing
Details: 2.5 µM, incubation time: 72 h
Summary of the method: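 Viability index is the count of red-stained particles in a well divided by the plate mean of solvent-only wells. Particles of 20–70 µm2 were counted in one imaged field per well after one to two hours with 3 µl of 2.5 µM MitoTracker Red CMXRos and 0.13% saponin. Before staining, P. falciparum NF54 stage V gametocytes in serum-free medium (0.75% gametocytemia, 1.25% hematocrit, 10 µl, 1,536-well plates) were kept with compound at 2.5 µM for 72 hr at 37°C under low oxygen.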

[1] = library set: Broad Institute DOS

Compound | viability index [1] | viability index (library set: Broad Institute Blood Stage)
C[C@H](NC(=O)C[C@H]1C=C[C@@H](NC(=O)c2cccnc2)[C@H](CO)O1)c1ccccc1 | 1.061 ± 0.0091 | 
COc1cccc(S(=O)(=O)N[C@@H]2CC[C@@H](CC(=O)NC3Cc4ccccc4C3)O[C@@H]2CO)c1 | 1.06 ± 0.064 | 
Cc1ccc(S(=O)(=O)N[C@H]2C=C[C@H](CC(=O)NCc3ccc(Cl)c(Cl)c3)O[C@H]2CO)cc1 | 0.88 ± 0.074 | 
COCCNC(=O)C[C@H]1C[C@@H]2c3cc(NC(=O)CN(C)C)ccc3O[C@@H]2[C@H](CO)O1 | 1.112 ± 0.0086 | 
CCC(=O)N1C[C@@H]2[C@H](c3ccccc31)[C@H](CO)N2C(=O)CC1CC1 | 1.06 ± 0.016 | 
O=C(C[C@H]1CC[C@H](NC(=O)c2ccc3c(c2)OCO3)[C@H](CO)O1)NCc1ccc(Oc2ccccc2)cc1 | 1.12 ± 0.056 | 
COc1ccc2c3c([C@@H](CO)N(Cc4cccnc4)C[C@]33CCN(CC3)C(=O)NC(C)C)n(C)c2c1 | 1 ± 0.033 | 
CN1[C@H](C(=O)Nc2nccs2)[C@@H](CO)[C@@H]2Cn3c(ccc(-c4ccccc4F)c3=O)[C@@H]21 | 1.05 ± 0.027 | 
O=C(C[C@H]1C[C@H]2c3cc(NS(=O)(=O)c4ccc(F)cc4)ccc3O[C@H]2[C@H](CO)O1)NCCN1CCCCC1 | 1.09 ± 0.044 | 
CN1CCN(C(=O)C[C@H]2C[C@@H]3c4cc(NS(C)(=O)=O)ccc4O[C@@H]3[C@H](CO)O2)CC1 | 1.01 ± 0.043 | 
O=C(c1ccccc1F)N1CC(=O)N2[C@H](CO)[C@H](c3ccc(-c4cccnc4)cc3)[C@H]2C1 |  | 0.742 ± 0.068
CN(C)C(=O)c1cccc(-c2ccc3n(c2=O)C[C@H]2[C@H](CO)[C@@H](C(=O)NCC4CC4)N[C@@H]32)c1 | 1.08 ± 0.012 | 
COc1ccc(CN(C)C[C@@H]2OCc3cnnn3CCCC(=O)N([C@H](C)CO)C[C@@H]2C)cc1 | 0.963 ± 0.038 | 
O=C1CCC(=O)N[C@@H](c2ccccc2)C/C=C\CCN1 | 1.01 ± 0.087 | 
CCc1nc(N2[C@H](CO)[C@H](c3ccccc3-c3ccc(F)cc3)[C@@H]2C#N)sc1C | 1.03 ± 0.12 | 
CC(C)[C@@H]1CCc2cnnn2COC[C@H](Cc2ccccc2)NC1=O | 1.04 ± 0.017 | 
CN(C)C(=O)c1cccc(-c2ccccc2[C@@H]2[C@@H](C#N)N(C(=O)C3CCCCC3)[C@@H]2CO)c1 | 1.01 ± 0.017 | 
C[C@H]1CN([C@@H](C)CO)C(=O)CCCn2nncc2CO[C@@H]1CN(C)C(=O)Nc1cccc(Oc2ccccn2)c1 | 1.111 ± 0.0083 | 
C[C@@H]1CN([C@H](C)CO)C(=O)Cc2cc(NS(=O)(=O)c3ccc(F)cc3)ccc2O[C@@H]1CN(C)Cc1ccncc1 | 1 ± 0.033 | 
COc1ccc(-c2ccc([C@@H]3[C@H]4CN(Cc5ccccc5)CC(=O)N4[C@H]3CO)cc2)cc1 | 1.089 ± 0.0085 | 
COc1ccc2c3c([nH]c2c1)[C@H](CO)N(CC1CC1)C[C@]31CCN(CC1)C(=O)Nc1cccc(F)c1 | 1.01 ± 0.059 | 
Cc1noc(C)c1NC(=O)N(C)C[C@@H]1Oc2cc(C#CCN(C)C)ccc2S(=O)(=O)N([C@H](C)CO)C[C@H]1C | 1.02 ± 0.17 | 
CN1c2ccc(-c3ccccc3F)cc2[C@H]2[C@H](CCN2C(=O)Nc2cc(F)ccc2F)[C@H]1CO | 1.077 ± 0.0071 | 

Compound | viability index [1] | viability index (library set: Broad Institute Blood Stage)
COc1ccccc1S(=O)(=O)N[C@H]1C=C[C@H](CC(=O)N2CCOCC2)O[C@H]1CO | 1.1 ± 0.077 | 
CCCNC(=O)N1C[C@@H](C)[C@@H](OC)CN(C)C(=O)c2ccc(NC(=O)CC)cc2OC[C@H]1C | 1.055 ± 0.0082 | 
CCS(=O)(=O)N1CCCCN2[C@@H](CO)[C@@H](c3ccc(-c4ccc(C(=O)N(C)C)cc4)cc3)[C@@H]2C1 | 1.07 ± 0.067 | 
C[C@@H]1CN([C@H](C)CO)C(=O)c2cc(NC(=O)c3ccncc3)ccc2O[C@@H](C)CCCCO[C@H]1CN(C)Cc1ccc(Cl)c(Cl)c1 | 1.09 ± 0.036 | 
Cc1noc(C)c1NC(=O)N(C)C[C@H]1OCc2cn(nn2)CCCC(=O)N([C@H](C)CO)C[C@H]1C | 1.07 ± 0.033 | 
O=C([C@H]1N[C@H]2c3ccc(-c4ccc(F)cc4)c(=O)n3C[C@H]2[C@@H]1CO)N1CCc2ccccc2C1 | 1.02 ± 0.026 | 
C[C@@H]1CN([C@@H](C)CO)C(=O)c2cccc(NS(=O)(=O)c3cn(C)cn3)c2O[C@H]1CN(C)Cc1ccc(Oc2ccccc2)cc1 | 0.967 ± 0.069 | 
CNC[C@H]1OCc2cnnn2CCCC(=O)N([C@H](C)CO)C[C@H]1C | 1.09 ± 0.076 | 
CCCNC(=O)C[C@@H]1CC[C@H]2[C@@H](COC[C@H](O)CN2C(=O)Nc2ccc(Cl)c(Cl)c2)O1 | 1.12 ± 0.13 | 
CO[C@H]1CN(C)C(=O)c2cc(NC(=O)c3ccc(F)cc3)ccc2OC[C@@H](C)N(C(=O)CC2CC2)C[C@H]1C | 1.099 ± 0.004 | 
COCC(=O)N1CC(=O)N2[C@@H](CO)[C@H](c3ccc(C#CC4CC4)cc3)[C@@H]2C1 | 1.11 ± 0.072 | 
O=C(CN1CCOCC1)N1CC[C@@H]2[C@@H](CO)Nc3ccc(-c4ccccc4F)cc3[C@@H]21 | 1.111 ± 0.0091 | 
COc1ccc2c3c([C@H](CO)N(C[C@]33CN(CC4CCOCC4)C3)C(=O)c3ccc(F)cc3)n(C)c2c1 | 0.992 ± 0.016 | 
COc1ccc2c3c([C@H](CO)N(C[C@]33CCN(CC3)C(=O)Nc3cccc(F)c3)C(=O)CN3CCOCC3)n(C)c2c1 | 0.941 ± 0.018 | 
CO[C@H]1CC[C@@H]2CCOc3ccc(C#N)cc3C(=O)N(C)C[C@@H](c3ccccc3)CC(=O)N(C)C[C@@H]1O2 | 1.03 ± 0.06 | 
C[C@H]1CCCCO[C@H](CN(C)C(=O)Nc2ccccc2)[C@@H](C)CN([C@@H](C)CO)C(=O)c2cc(NC(=O)Nc3ccccc3)ccc2O1 | 0.998 ± 0.087 | 
CN(C)C(=O)C[C@@H]1C[C@H]2c3cc(NC(=O)Nc4ccc(F)cc4)ccc3O[C@H]2[C@H](CO)O1 | 1.08 ± 0.043 | 
COc1ccc2c3c([nH]c2c1)[C@H](CO)N(C[C@]31CN(C1)C(=O)c1ccccc1)S(C)(=O)=O | 1.05 ± 0.015 | 
O=C(C[C@@H]1C[C@@H]2c3cc(NS(=O)(=O)c4ccc(F)cc4)ccc3O[C@@H]2[C@H](CO)O1)N1CCc2ccccc2C1 | 1.13 ± 0.069 | 
Cc1noc(C)c1NC(=O)Nc1cccc2c1O[C@@H](CN(C)Cc1ccc(C(=O)Nc3ccccc3N)cc1)[C@@H](C)CN([C@@H](C)CO)C2=O | 0.982 ± 0.11 | 
CCS(=O)(=O)Nc1ccc2c(c1)C(=O)N(C)[C@H]1CC[C@@H](CC(=O)N[C@H]3CCN(Cc4ccccc4)C3)O[C@H]1CO2 | 1.2 ± 0.021 | 
C[C@@H]1CN([C@@H](C)CO)C(=O)c2cc(NS(C)(=O)=O)ccc2O[C@@H](C)CCCCO[C@H]1CN(C)C(=O)Cc1ccccc1 | 1.02 ± 0.018 | 
O=C(CCN1CCCCC1)N[C@H]1CC[C@H](CCn2cc(-c3cccc(F)c3)nn2)O[C@H]1CO | 1.08 ± 0.099 | 

Compound | viability index [1] | viability index (library set: Broad Institute Blood Stage)
CCCC(=O)Nc1ccc2c(c1)OC[C@@H](C)NC[C@@H](C)[C@@H](OC)CN(C)C2=O | 1.02 ± 0.024 | 
CCN(C[C@@H]1[C@@H](c2ccccc2)[C@@H](CO)N1CC1CC1)C(=O)c1ccccn1 | 0.996 ± 0.06 | 
COc1ccc(S(=O)(=O)Nc2ccc3c(c2)C(=O)N([C@H](C)CO)C[C@H](C)[C@@H](CN(C)Cc2ccc(C(F)(F)F)cc2)OCCCC[C@@H](C)O3)cc1 | 0.899 ± 0.087 | 
O=C(C[C@H]1CC[C@H]2[C@@H](COC[C@H](O)CN2Cc2cc(F)cc(F)c2)O1)Nc1nccs1 | 1.13 ± 0.048 | 
COc1ccc(S(=O)(=O)Nc2ccc3c(c2)C(=O)N([C@@H](C)CO)C[C@H](C)[C@H](CN(C)Cc2ccc(C(F)(F)F)cc2)OCCCC[C@@H](C)O3)cc1 | 1.05 ± 0.2 | 
CN1C(=O)c2cc(NC(=O)c3cccc(Cl)c3)ccc2OC[C@H]2O[C@@H](CC(=O)NC3CCCCC3)CC[C@@H]21 | 1.01 ± 0.012 | 
O=C(c1ccccc1)N1[C@@H](CO)[C@@H](c2ccccc2)C12CN(Cc1nccs1)C2 | 1.1 ± 0.012 | 
O=C(Nc1ccc(Cl)cc1)N1C[C@@H]2[C@H](c3ccccc31)[C@@H](CO)N2CC1CCCCC1 | 0.987 ± 0.025 | 
C[C@H](CO)N1C[C@H](C)[C@H](CN(C)Cc2cccc3c2OCCCO3)OCc2cnnn2CCCC1=O | 0.981 ± 0.094 | 
N#C[C@H]1[C@@H](c2ccc(C#Cc3cccc(F)c3)cc2)[C@@H](CO)N1C(=O)C1CCOCC1 | 1.05 ± 0.058 | 
O=C(C[C@@H]1CC[C@H]2NC[C@@H](O)COC[C@@H]2O1)NCCc1ccncc1 | 0.985 ± 0.065 | 
CN1C[C@@H]2[C@H](c3ccccc31)[C@@H](CO)N2C(=O)C1CCOCC1 | 1.02 ± 0.075 | 
O=C(Cc1ccccn1)N1CC(=O)N2[C@H](CO)[C@@H](c3ccc(C#CCC4CCCC4)cc3)[C@@H]2C1 | 1.01 ± 0.056 | 
C[C@@H]1CC(=O)N[C@@H](c2ccccc2)C/C=C\C[C@H](c2ccc3c(c2)OCO3)NC1=O | 1.06 ± 0.057 | 
C[C@@H]1CN([C@@H](C)CO)C(=O)c2cc(N(C)C)ccc2O[C@H]1CN(C)CC1CCCCC1 | 0.998 ± 0.053 | 
O=C(C[C@H]1CC[C@H]2NC[C@H](O)COC[C@@H]2O1)Nc1ccc(-c2ccccc2)cc1 | 1.088 ± 0.0014 | 
C[C@H](NC(=O)C[C@H]1CC[C@H]2[C@@H](COc3ccc(NS(=O)(=O)c4ccc(Cl)cc4)cc3C(=O)N2C)O1)c1ccccc1 | 1.091 ± 0.0098 | 
CN1C(=O)c2cc(NS(=O)(=O)c3ccccc3Cl)ccc2OC[C@H]2O[C@@H](CC(=O)Nc3cc(F)ccc3F)CC[C@@H]21 | 1.02 ± 0.026 | 
COc1cccc(NC(=O)Nc2ccc3c(c2)C(=O)N(C)C[C@H](OC)[C@@H](C)CN[C@H](C)CO3)c1 | 1.02 ± 0.047 | 
C[C@@H]1CN([C@@H](C)CO)C(=O)c2c(c3ccccc3n2C)-c2ccccc2CO[C@H]1CN(C)C(=O)[C@@H](Cc1ccccc1)N(C)C | 1.06 ± 0.042 | 
CN1C(=O)c2cc(NC(=O)Nc3ccccc3Cl)ccc2OC[C@H]2O[C@@H](CC(=O)NCCCN3CCOCC3)CC[C@H]21 | 1.19 ± 0.15 | 
O=C(Nc1ccccc1F)N1CCCCN2[C@H](CO)[C@H](c3ccc(/C=C/c4ccccc4)cc3)[C@H]2C1 | 0.492 ± 0.14 | 
Cc1noc(C)c1NC(=O)N(C)C[C@H]1OCc2ccccc2-c2c(n(C)c3ccccc23)C(=O)N([C@H](C)CO)C[C@H]1C | 1.03 ± 0.0078 | 
